Source: PubChem BioAssay AID1508623 (National Center for Advancing Translational Sciences (NCATS), 2021)
In all, about 48,000 compounds went through this assay and about 450 (0.94%) were called active. About 19% were inconclusive and are not listed. The call rests on the fitted dose curve; in most records, active means well fitted inhibition curve with a large enough effect; inconclusive means small, poorly fitted or top-dose-only effect; inactive means no such curve, though single readings can be large or run the other way. This is one part of the list.

test: Primary qHTS for Identification of Small Molecule Inhibitors of Huntingtin Promoter Activity; conditions: HEK293 HTT promoter firefly luciferase reporter (activity 0% = vehicle and -100% = no light), 24 h; series mostly up to 57.5 µM; activity change, negative = inhibition: at the top concentration; further: nearly all actives have a fitted effect of over 50% in size
How it was run: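 HEK293 luciferase promoter-reporter cells (2,500/well) plated 24 h, then compounds added at up to 57.5 uM final for 24 h at 37 °C. Firefly luminescence by Dual-Glo, normalized to vehicle (0%) and zero RLU (-100%).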

Activity change, negative = inhibition, inactive:
CCc1ccccc1Nc1nn2c(=O)c3ccc(C(=O)Nc4ccc(OC)cc4)cc3nc2s1 -24.7%
O=C(CSc1nc2ccccc2nc1Cc1ccccc1)N1CCN(c2ccccc2)CC1 -2.43%
Cc1cccc(NC(=O)NCCOCCn2c(=O)oc3ccccc32)c1C -2.88%
COc1ccc(CCC(=O)NCc2nc3cccnc3n2Cc2ccccc2)cc1 0.543%
CC(C)Oc1ccc(C(=O)Nc2ccc(-c3nc4ccccc4s3)cc2)cc1 7.09%
COc1ccccc1C(=O)Nc1cc(-c2ccc(C)cc2)no1 54.8%
Cc1ccccc1Cn1c(CN2CCN(c3cc(Cl)ccc3C)CC2)nc2c1c(=O)[nH]c(=O)n2C 2.18%
Cc1ccc(Cl)cc1NC(=O)CCCN1C(=O)CCn2nc(-c3cn(C)c4ccccc34)cc21 -6.86%
CCOc1ccc(CCNC(=O)CCn2c(=O)c3cccn3c3cccnc32)cc1 -7.47%
COc1ccc(N2CCN(C(=O)c3cc4cc5ccc(Cl)cc5nc4o3)CC2)cc1 5.93%
COc1ccc(C)cc1S(=O)(=O)NCC(c1ccc(N(C)C)cc1)N1CCc2ccccc21 (stereo not given) -28.5%
CCC(=O)Nc1ccccc1-c1nc2ccccc2n(C(C)C(=O)Nc2ccc(OC)cc2)c1=O (stereo not given) 47%
O=C(O)c1ccc(N2C(=O)c3[nH]nc(-c4ccccc4)c3C2c2cccc(F)c2)cc1 (stereo not given) -1.14%
CN(c1ccccc1)c1ncnc2c1cnn2C 23.5%
Cc1cc(NC(=O)N2CCC(CN3CCOCC3)CC2)ccc1Br -13.1%
COc1cccc(C2C(=O)N(C3CCCCC3)CC(=O)N2Cc2ccc(Cl)cc2)c1 (stereo not given) -19.6%
CCc1ccc(C2C(C(=O)Nc3ccc(Cl)cc3)=C(C)Nc3ncnn32)cc1 (stereo not given) -27.1%
Cc1ccc2c(c1)C(=O)OC(C(=O)Nc1ncc(Cc3ccccc3)s1)C2 (stereo not given) 6.79%
CCNc1nc(Oc2ccc(=O)n(-c3ccccc3)n2)nc(N(C)C)n1 -0.141%
CCOc1cc(C(=O)Nc2ccc(-c3nc4cc(Cl)ccc4o3)cc2)cc(OCC)c1OCC 9.55%
CC(=O)c1cccc(-n2c(=O)c3c4c(sc3n(CC(=O)c3ccc(Cl)cc3)c2=O)CN(C(C)=O)CC4)c1 -4.08%
CC1CCCCN1C(=O)CSc1n[nH]c(-c2ccccc2)n1 (stereo not given) 41.4%
O=C(Nc1cccc(Cl)c1)c1cc(-c2ccccc2)on1 2.1%
COc1ccc(CNC(=O)CCCc2nnc3n(CCC(C)C)c(=O)c4sccc4n23)cc1 -4.22%
Cn1cc(C(=O)NCCc2ccc(Cl)cc2)c(=O)c2cc(S(=O)(=O)N3CCOCC3)ccc21 9.37% [at 11.5 µM]
O=c1[nH]c(C2CCCN(S(=O)(=O)c3ccccc3Cl)C2)nc2c1nnn2Cc1ccc(OC(F)(F)F)cc1 (stereo not given) -14.9%
Cc1ccc(CCNC(=O)C2CC(=O)N(CCc3ccccc3)C2)cc1 (stereo not given) -6.25%
Cc1ccc(C(=O)Nc2cccc(C(F)(F)F)c2)cc1Nc1nc(-c2cccnc2)nc2c1cnn2C -7.46%
CCc1nn(CCCC(=O)N2CCN(c3ccc(OC)cc3)CC2)c(=O)c2cc3occc3n12 -18%
COc1ccc(CCNC(=O)c2ccc3c(c2)c(C)c(C)n3Cc2ccccc2)c(OC)c1OC -19.7%
COc1ccc(NC(=O)C2CCC(CNS(=O)(=O)c3ccc4c(c3)C(C)(C)C(=O)N4C)CC2)cc1 (stereo not given) -7.36%
Cc1noc(-c2ccc(CSCCC(=O)O)cc2)c1NC(=O)OC(C)c1ccccc1Cl (stereo not given) -11.5%
Cc1cc(CC(=O)O)c(C)n1-c1ccc(Cl)cc1 -1.33%
O=C(COc1ccccc1)Nc1ccc2nc(SCC(=O)N3CCc4ccccc43)sc2c1 -13%
CCOc1ccc(C(=O)Nc2onc3c2CCCC3)cc1 72.9%
CCOC(=O)N1c2ccc(C(F)(F)F)cc2[C@@H](N(Cc2cc(C(F)(F)F)cc(C(F)(F)F)c2)C(=O)OC)C[C@H]1CC -31.2%
N#Cc1ccccc1Cn1c(SCC(=O)Nc2ccc(F)cc2)nc2ccccc21 -33.9%
Cn1cnc(S(=O)(=O)N2CCC(C(=O)Nc3ccc(C#N)cc3)CC2)c1 -17.4%
CC(=O)c1ccc(NC(=O)c2nc(-c3ccccc3)n(-c3ccccc3Cl)n2)cc1 -13.2%
COc1ccc(CNCCCSc2nnnn2C)c(OC)c1 -4.31%
CCc1nnc(SCc2ccc(F)cc2Cl)c2cc3sc(C)cc3n12 2.91%
COc1cccc(CNC(=O)CCn2c(=O)c3cccn3c3cccnc32)c1OC 2.92%
CCOc1ccc(CNC(=O)C2CCN(S(=O)(=O)c3ccc4c(ccn4C)c3)CC2)cc1 0%
Cc1nn(CC(=O)NCC(C)c2ccccc2)c(=O)c2cc3ccccc3n12 (stereo not given) -4.54%
Cc1ccc(-c2noc(-c3ccc(N4CCCCC4C)c([N+](=O)[O-])c3)n2)cc1 (stereo not given) -19.9%
CCCCn1c(=O)c2oc3ccccc3c2n(Cc2cccc(C)c2)c1=O 4.42%
Cc1c(C(=O)Nc2ccc(-c3nc4cc(Cl)ccc4o3)cc2)oc2ccccc12 -7.55%
Cc1ccccc1NC(=O)CSc1cn(CC(=O)N2CCCC2)c2ccccc12 -34.5%
Cc1c(Cl)cccc1NC(=O)c1cc2sccc2n1Cc1ccc(F)cc1 -30.1%
COc1ccc(N(C)C(=O)c2nc(-c3cccc(F)c3)n3c2CCCCC3)c(OC)c1 -17%
CC1(C)O[C@@H]2C[C@@H]3[C@H]4C[C@@H](F)C5=CC(=O)C=C[C@]5(C)[C@@]4(F)[C@@H](O)C[C@]3(C)[C@]2(C(=O)CO)O1 -3.85%
Cc1ccc(-c2cc(-c3coc4ccccc4c3=O)c3c(n2)-c2ccccc2OC3)cc1 -5.86%
Cc1c(-c2cccc(NC(=O)Nc3ccccc3)c2)nc2ncccn12 9.73%
Cc1ccc(S(=O)(=O)N2CCc3cc(C(=O)NCCc4ccccc4)ccc32)cc1 -20.7%
CCS(=O)(=O)N1CCC2(CC1)OC(=O)C(C)=C2C(=O)NCc1ccccc1C 0.852%
COc1cccc(Cn2c(=O)cc(C)c3c(C)nn(-c4ccc(C)cc4)c32)c1 -1.96%
COc1ccccc1N(CC(=O)NCCSCc1ccccc1)S(C)(=O)=O -8.53%
CCCCc1nn2c(=O)cc(COC(=O)c3cccc(OC)c3)nc2s1 -15.8%
COc1ccc(-c2cc(C(F)(F)F)nc(SCC(=O)NCc3ccc(OC)c(OC)c3)n2)cc1 -7.56%
CCc1nnc2c(Nc3cccc(C(C)=O)c3)nc3ccccc3n12 2.24%
